Test results taken from the antibiotic and cytotoxicity screens of Wong et al. (2023).
The other results are listed elsewhere or left out.

How the values were obtained:
HSkMC = human skeletal muscle cells; assay: cytotoxicity call (relative viability < 0.9); conditions: 10 µM
HepG2 = assay: cytotoxicity call (relative viability < 0.9); conditions: 10 µM
S. aureus RN4220 = assay: growth inhibition call (relative growth <= 0.2); conditions: 50 µM

O=C(O)c1c2ccccc2cc2ccccc12
inactive: cytotoxicity call (HSkMC) | cytotoxicity call (HepG2) | growth inhibition call (S. aureus RN4220)

C[C@@H]1CN([C@H](C)CO)C(=O)c2cc(N(C)C)ccc2O[C@@H](C)CCCCO[C@H]1CN(C)Cc1ccc(C(=O)Nc2ccccc2N)cc1
inactive: cytotoxicity call (HSkMC) | cytotoxicity call (HepG2) | growth inhibition call (S. aureus RN4220)

C[C@@H]1CN([C@H](C)CO)C(=O)Cc2cc(NS(=O)(=O)c3cn(C)cn3)ccc2O[C@@H]1CN(C)S(=O)(=O)c1ccc(F)cc1
inactive: cytotoxicity call (HSkMC) | cytotoxicity call (HepG2) | growth inhibition call (S. aureus RN4220)

CC(=O)NCCCC[C@@H]1NC(=O)[C@@H]2C[C@H](C(=O)NCCCCCCN(C)C)[C@H](c3ccc(O)cc3)N2C1=O
inactive: cytotoxicity call (HSkMC) | cytotoxicity call (HepG2) | growth inhibition call (S. aureus RN4220)

CN(C)C(=O)c1cccc(-c2cccc(-c3nc(C(=O)NC4CCCCC4)cc4c3[C@@H](CCO)N([S@](=O)C(C)(C)C)C4)c2)c1
inactive: cytotoxicity call (HSkMC) | cytotoxicity call (HepG2) | growth inhibition call (S. aureus RN4220)

CC(C)NC(=O)N(C)C[C@H]1Oc2ccc(NS(=O)(=O)c3cccs3)cc2C(=O)N([C@@H](C)CO)C[C@@H]1C
inactive: cytotoxicity call (HSkMC) | cytotoxicity call (HepG2) | growth inhibition call (S. aureus RN4220)

COCCCN1C(=O)[C@@]2(Cc3ccccc31)c1ccccc1C(=O)N(Cc1ccccc1C(F)(F)F)[C@H]2c1ccc(CO)cc1
inactive: cytotoxicity call (HSkMC) | cytotoxicity call (HepG2) | growth inhibition call (S. aureus RN4220)

Cc1ccc(S(=O)(=O)N(C)C[C@@H]2Oc3ncc(-c4ccncc4)cc3C(=O)N([C@@H](C)CO)C[C@H]2C)cc1
inactive: cytotoxicity call (HSkMC) | cytotoxicity call (HepG2) | growth inhibition call (S. aureus RN4220)

C[C@@H]1CCCCO[C@H](CN(C)Cc2ccc(C(F)(F)F)cc2)[C@H](C)CN([C@@H](C)CO)C(=O)c2cc(N(C)C)ccc2O1
inactive: cytotoxicity call (HSkMC) | cytotoxicity call (HepG2) | growth inhibition call (S. aureus RN4220)
